Source: the supplement of paper PMC8728848
This is one part of the list.

Key:
Assay in all cases: glycan array binding signal (z-score within array); higher = stronger binding
Conditions in all cases: glycan notation: IUPAC condensed, linker removed
[1] = target: Neu5Ac9Ac(a2-3)Gal(b1-4)GlcNAc
Method in brief: (§1)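 The binding signal is a Z-score computed within each array and averaged over linkers. Arrays of the same protein sequence at different concentrations or buffers were also averaged together. Data originate from 3228 arrays in the Consortium for Functional Glycomics database, kept only where the protein sequence was available.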

[2] = target: Neu5Ac9Ac(a2-6)Gal(b1-4)GlcNAc
Method in brief: as §1

[3] = target: Neu5Gc(a2-3)Gal(b1-3)GlcNAc
Method in brief: as §1

[4] = target: Neu5Gc(a2-3)Gal(b1-3)[Fuc(a1-4)]GlcNAc
Method in brief: as §1

[5] = target: Neu5Gc(a2-3)Gal(b1-4)Glc
Method in brief: as §1

[6] = target: Neu5Gc(a2-3)Gal(b1-4)GlcNAc
Method in brief: as §1

[7] = target: Neu5Gc(a2-3)Gal(b1-4)[Fuc(a1-3)]GlcNAc
Method in brief: as §1

[8] = target: Neu5Gc(a2-6)Gal(b1-4)GlcNAc
Method in brief: as §1

[9] = target: Neu5Gc(a2-6)GalNAc
Method in brief: as §1

[10] = target: Neu5Gc(b2-6)Gal(b1-4)GlcNAc
Method in brief: as §1

B1: Gal 9 (Canis lupus) (protein)
chain: MAFSSSQPPYLSPGVPFSGKIQGGLQDGLKITINGTILYCNGTRFAVNFHSGHSDSDIAFHFNPRFEEGGYVVCNTKQKGSWGSEERKMQMPFQMGNPFELCFMVNSCDFKVTVNGSHFTQYSHRVPFHYVDTLSITGAVQLSYISFQSPGVWQSSSAPITQTVIHTVQTTPGQPFPNPIIPPTAYPTPTYPMPFFTSIPGGLYPSKSIIVSGTVLPGAKRFHINLRSGNDIAFHLNPRFNENTVVRNMQINNSWGSEERSLPRKMPFVQGQSFSVWIMCEGHCFKVAVDGEHLFEYYHRLKNLLAINNMEVAGDVQLTHVQT
- glycan array binding signal (z-score) [1]: 0.477
- glycan array binding signal (z-score) [2]: -0.358
- glycan array binding signal (z-score) [3]: 0.216
- glycan array binding signal (z-score) [4]: -0.122
- glycan array binding signal (z-score) [5]: -0.037
- glycan array binding signal (z-score) [6]: 0.045
- glycan array binding signal (z-score) [7]: -0.325
- glycan array binding signal (z-score) [8]: -0.351
- glycan array binding signal (z-score) [9]: -0.354
- glycan array binding signal (z-score) [10]: -0.335
